# Data from the antibiotic and cytotoxicity screens of Wong et al. (2023).
# This is one part of the list.
# Test system: HSkMC (human skeletal muscle cells)
# Experiment: cytotoxicity call (relative viability < 0.9)
# Conditions: 10 µM
row,SMILES,cytotoxicity call
1,C=C1C(CO)C(O)CC1n1cnc2c(=O)[nH]c(N)nc21.O (stereo not given),inactive
2,C[C@H]1CN([C@@H](C)CO)C(=O)c2c(c3ccccc3n2C)-c2ccccc2CO[C@@H]1CN(C)Cc1cccc(O)c1,inactive
3,C[C@@H]1CN([C@H](C)CO)C(=O)c2cc(NC(=O)Cn3cnnn3)ccc2O[C@@H]1CN(C)C(=O)NC1CCCCC1,inactive
4,c1ccc(CCN2CCNCC2)nc1,inactive
5,CCCOC(=S)N[C@H]1OC[C@@H](O)[C@@H](O)[C@@H]1O,inactive
6,COc1ccccc1NC(=O)N(C)C[C@H]1Oc2ncc(C#CC(C)C)cc2C(=O)N([C@@H](C)CO)C[C@@H]1C,inactive
7,Cc1nc(C2C(=N)N([C@H]3CS(=O)(=O)C[C@@H]3O)CC2=O)sc1C (stereo not given in full),inactive
8,C[C@@H]1CCCCO[C@H](CN(C)C(=O)CCCN(C)C)[C@H](C)CN([C@H](C)CO)C(=O)c2cc(NC(=O)Nc3cccc4ccccc34)ccc2O1,inactive
9,CC(C)NC(=O)N(C)C[C@H]1Oc2ccc(NC(=O)Cc3ccccc3)cc2C(=O)N([C@@H](C)CO)C[C@@H]1C,inactive
10,COC(=O)C[C@@H]1C=C[C@@H](N)[C@H](CO)O1,inactive
11,Cc1ccc(S(=O)(=O)n2cc([C@H]3CC(=O)N(C(=O)OCc4ccccc4)[C@H]3C(=O)Nc3cccc4cccnc34)c3ccccc32)cc1,inactive
12,C[C@@H]1CN([C@H](C)CO)C(=O)c2cc(NS(=O)(=O)c3ccc(F)cc3)ccc2O[C@@H](C)CCCCO[C@@H]1CN(C)C(=O)CCC(F)(F)F,inactive
13,C[C@H]1CN([C@@H](C)CO)C(=O)c2cccc(NC(=O)c3ccncc3)c2O[C@H]1CN(C)S(=O)(=O)c1cn(C)cn1,inactive
14,C[C@@H]1CN([C@H](C)CO)C(=O)Cc2cc(NS(=O)(=O)c3cn(C)cn3)ccc2O[C@@H]1CN(C)C(=O)Nc1ccc2c(c1)OCO2,inactive
15,C[C@H](CO)N1C[C@H](C)[C@H](CN(C)C(=O)C2CCCCC2)OCCCC[C@H](C)Oc2ccc(NS(=O)(=O)c3cccs3)cc2C1=O,inactive
16,CN1CCN(C(=O)C[C@@H]2CC[C@@H]3[C@H](COc4ccc(NC(=O)c5ccc(F)c(F)c5)cc4C(=O)N3C)O2)CC1,inactive
17,Cc1nnc2sc(=S)[nH]n2c1=O,inactive
18,Cc1csc2c(Cl)ncnc12,inactive
19,O=C1CCNc2cc3ccccc3cc21,active
20,C[C@@H]1CN([C@H](C)CO)C(=O)c2cc(NC(=O)C3CCCCC3)ccc2O[C@@H](C)CCCCO[C@@H]1CN(C)C(=O)Cc1ccccc1,inactive

row,SMILES,cytotoxicity call
1,Cc1ccc(S(=O)(=O)Nc2ccc3c(c2)C(=O)N([C@@H](C)CO)C[C@H](C)[C@@H](CN(C)S(=O)(=O)c2ccc(Cl)cc2)OCCCC[C@H](C)O3)cc1,inactive
2,Cc1ccccc1S(=O)(=O)N1C[C@@H](O)COC[C@H]2O[C@H](CC(=O)NCCc3ccccc3)CC[C@@H]21,inactive
3,C[C@H](CO)N1C[C@H](C)[C@H](CN(C)C(=O)NC2CCCCC2)OCCCC[C@H](C)Oc2ccc(NS(=O)(=O)c3ccccc3)cc2C1=O,inactive
4,C[C@@H]1NC(=O)[C@@H]2CCCN2C(=O)[C@H](CC(N)=O)NC(=O)[C@@H]2CSSC[C@H](N)C(=O)N[C@H]3CSSC[C@H](NC1=O)C(=O)N[C@@H]([C@@H](C)O)C(=O)NCC(=O)N[C@H](C(=O)N[C@@H](Cc1ccc(O)cc1)C(=O)O)CSSC[C@H](NC(=O)[C@H](Cc1ccc(O)cc1)NC(=O)[C@H](CCC(=O)O)NC3=O)C(=O)N2,inactive
5,Cc1c(C(=O)OCC(=O)N(CC(C)C)c2c(N)n(Cc3ccccc3)c(=O)[nH]c2=O)oc2ccccc12,inactive
6,C[C@@H]1CCCCO[C@H](CN(C)Cc2ccc(Cl)c(Cl)c2)[C@H](C)CN([C@@H](C)CO)C(=O)c2cc(NC(=O)Nc3ccc(F)cc3)ccc2O1,inactive
7,COc1ccc(NC(=O)N(C)C[C@H]2Oc3ccc(NS(C)(=O)=O)cc3C(=O)N([C@@H](C)CO)C[C@H]2C)cc1,inactive
8,CC(C)NC(=O)Nc1ccc2c(c1)C(=O)N([C@H](C)CO)C[C@@H](C)[C@@H](CN(C)Cc1ccccc1)OCCCC[C@H](C)O2,inactive
9,O=C(C[C@@H]1CC[C@H]2[C@@H](COC[C@H](O)CN2S(=O)(=O)c2cccc(Cl)c2)O1)NCc1ccncn1,inactive
10,CCOc1ccc(/C=C/C(=O)Sc2ccc(Cl)cc2)cc1,inactive
11,CC=Cc1ccc2n(c1=O)C[C@@H]1[C@@H](CO)[C@H](C(=O)NCCc3cn(C)cn3)[C@H]2N1C(=O)C1CC1,inactive
12,CNC[C@@H]1Oc2ccc(NC(=O)Cn3cnnn3)cc2C(=O)N([C@@H](C)CO)C[C@@H]1C,inactive
13,C[C@@H]1CN([C@@H](C)CO)C(=O)CCCn2nncc2CO[C@@H]1CN(C)C(=O)c1ccc(N2CCN(C)CC2)cc1,inactive
14,C[C@@H]1CN([C@H](C)CO)C(=O)c2cc(NC(=O)Nc3cccc4ccccc34)ccc2O[C@@H]1CN(C)Cc1ccncc1,inactive
15,O=C(C[C@H]1CC[C@H]2[C@@H](COC[C@H](O)CN2C(=O)c2ccccc2)O1)NCCCN1CCOCC1,inactive
16,C[C@H]1CN([C@@H](C)CO)S(=O)(=O)c2ccc(C#CC3CC3)cc2O[C@@H]1CN(C)C(=O)c1cccc(F)c1,inactive
17,COc1cccc(S(=O)(=O)Nc2ccc3c(c2)[C@@H]2C[C@H](CC(=O)NCc4cccc(F)c4)O[C@H](CO)[C@@H]2O3)c1,inactive
18,C[C@@H]1CN([C@@H](C)CO)S(=O)(=O)c2ccc(C#CC3(O)CCCC3)cc2O[C@H]1CN(C)C(=O)c1ccncc1,inactive
19,C[C@@H]1CN([C@H](C)CO)C(=O)Cc2cc(NS(=O)(=O)c3ccccc3)ccc2O[C@H]1CN(C)Cc1ccc(Cl)c(Cl)c1,active
20,C[C@H](CO)N1C[C@H](C)[C@@H](CN(C)Cc2ccc(C(=O)O)cc2)Oc2ccc(NS(=O)(=O)c3cn(C)cn3)cc2C1=O,inactive
